Reference: the supplement of paper PMC4604168 (melanoma cell lines)
The list shows a part of the results. Most values come without repeats; read them as rough.

Key:
Test in all cases: cell count relative to DMSO control; melanoma cells; higher = more viable cells
Details in all cases: library dose: low library concentration; 72 h
MZ2-MEL = tested on: MZ2-MEL
MeWo = tested on: MeWo
RPMI7951 = tested on: RPMI7951
RVH-421 = tested on: RVH-421
SkMel28 = tested on: SkMel28
SkMel2 = tested on: SkMel2
SkMel30 = tested on: SkMel30
SkMel5 = tested on: SkMel5
UACC257 = tested on: UACC257
UACC62 = tested on: UACC62
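Further: cell number obtained by counting DAPI-stained nuclei in high-throughput microscope images with image analysis software, screen run in 1,536-well plates.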

Row | Structure (SMILES) | cell count (MZ2-MEL) | cell count (MeWo) | cell count (RPMI7951) | cell count (RVH-421) | cell count (SkMel28) | cell count (SkMel2) | cell count (SkMel30) | cell count (SkMel5) | cell count (UACC257) | cell count (UACC62)
1 | OCc1c[nH]c2ccccc12 [Indole-3-carbinol] + CN(C)S(=O)(=O)c1ccc2c(c1)/C(=C/c1cc3c([nH]1)CCCC3)C(=O)N2 [SU6656] (first compound 0.8 µM, partner dose 0.4 µM) | 108% | 95.9% | 106% | 89.5% | 85% | 104% | 98.1% | 85.6% | 97.4% | 90.7%
2 | Clc1ccc(Nc2nnc(Cc3ccncc3)c3ccccc23)cc1 [vatalanib] + N#Cc1c(O)c2c(-c3ccc(-c4ccccc4O)cc3)csc2[nH]c1=O [A769662] (first compound 2 µM, partner dose 2 µM) | 104% | 76.6% | 85.8% | 114% | 93.7% | 93.9% | 87.2% | 95.1% | 83.1% | 107%
3 | Clc1ccc(Nc2nnc(Cc3ccncc3)c3ccccc23)cc1 [vatalanib] + Cc1ccc(NC(=O)c2cccc(N(C)C)c2)cc1NC(=O)c1ccc(O)cc1 [ZM336372] (first compound 2 µM, partner dose 2 µM) | 76.2% | 96.4% | 100% | 98.1% | 93.5% | 97% | 83.6% | 91.2% | 120% | 95.9%
4 | OCc1c[nH]c2ccccc12 [Indole-3-carbinol] + COc1cc(Nc2ncc(F)c(Nc3ccc4c(n3)NC(=O)C(C)(C)O4)n2)cc(OC)c1OC [Tamatinib] (first compound 0.8 µM, partner dose 0.4 µM) | 84.6% | 90.5% | 88.1% | 94.5% | 89.7% | 93.6% | 86.8% | 88.8% | 74.5% | 81.5%
5 | OCc1c[nH]c2ccccc12 [Indole-3-carbinol] + Oc1nc(-c2ccc(C(F)(F)F)cc2)nc2c1CSCC2 [XAV939] (first compound 0.8 µM, partner dose 2 µM) | 101% | 110% | 86.2% | 127% | 101% | 93% | 108% | 83.9% | 89.7% | 103%
6 | Nc1cccc2c1CN(C1CCC(=O)NC1=O)C2=O (stereo not given) [lenalidomide] + O=C(Nc1cccc(Cl)c1)Nc1ncc(CCNc2ncnc3ccsc23)s1 [SNS314] (first compound 1 µM, partner dose 0.0008 µM) | 101% | 84.5% | 109% | 95.5% | 85.7% | 100% | 94.8% | 99.8% | 103% | 66.9%
7 | Cn1c(Nc2ccc(C(F)(F)F)cc2)nc2cc(Oc3ccnc(-c4ncc(C(F)(F)F)[nH]4)c3)ccc21 + CC1(C)NC(=O)N(c2ccc([N+](=O)[O-])c(C(F)(F)F)c2)C1=O [nilutamide] (first compound 0.08 µM, partner dose 1 µM) | 68.4% | 61.3% | 61.4% | 58.6% | 74% | 64.3% | 54.3% | 63.4% | 53.1% | 59.2%
8 | COCC[n+]1c2c(n(Cc3cnccn3)c1C)C(=O)c1ccccc1C2=O + CN(NC(=O)CC(=O)NN(C)C(=S)c1ccccc1)C(=S)c1ccccc1 [STA4783] (first compound 0.0004 µM, partner dose 0.006 µM) | 45% | 60.1% | 78.5% | 91.9% | 97% | 77.8% | 73.2% | 66.5% | 87.7% | 90.2%
9 | OCc1c[nH]c2ccccc12 [Indole-3-carbinol] + Cc1cc([N+](=O)[O-])ccc1NS(=O)(=O)c1cc(Cl)ccc1Cl [FH535] (first compound 0.8 µM, partner dose 1 µM) | 90.1% | 94.6% | 110% | 95.8% | 85.7% | 92.1% | 91.8% | 83.7% | 85.5% | 83.1%
10 | Cn1c(Nc2ccc(C(F)(F)F)cc2)nc2cc(Oc3ccnc(-c4ncc(C(F)(F)F)[nH]4)c3)ccc21 + NCC(=O)Nc1ccc(-n2nc(C(F)(F)F)cc2-c2ccc3c(ccc4ccccc43)c2)cc1 [OSU03012] (first compound 0.08 µM, partner dose 1 µM) | 81.6% | 50.9% | 68.7% | 72.7% | 61.5% | 59.7% | 37.7% | 72.7% | 48.5% | 47.4%
11 | COCC[n+]1c2c(n(Cc3cnccn3)c1C)C(=O)c1ccccc1C2=O + COc1cc(Nc2ncc(F)c(Nc3ccc4c(n3)NC(=O)C(C)(C)O4)n2)cc(OC)c1OC [Tamatinib] (first compound 0.0004 µM, partner dose 0.4 µM) | 44.9% | 88.4% | 77.1% | 78% | 65.8% | 90.3% | 85.3% | 62.3% | 54.8% | 75.9%
12 | OCc1c[nH]c2ccccc12 [Indole-3-carbinol] + CCc1ccc(CCOc2ccc(CC3SC(=O)NC3=O)cc2)nc1 [pioglitazone] (first compound 0.8 µM, partner dose 2 µM) | 94.8% | 96.7% | 82.6% | 76.3% | 90.4% | 92.8% | 90.7% | 86.5% | 77.8% | 88.9%
